Tested on: Eimeria mitis
Experiment: Anticoccidial embryonated egg assay - E. mitis
Set-up: key: T = Toxic; A = Active; a = Marginal Activity; O = Inactive
Conditions: active = 80% or greater reduction of oocysts

| SMILES | Performance Rating (0.25 milligrams of drug per embryo) | Performance Rating (0.5 milligrams of drug per embryo) | Performance Rating (1 milligram of drug per embryo) |
| --- | --- | --- | --- |
| C/C=C\C=C\[C@@H]1O[C@](O)([C@H](CO[C@H]2C[C@@H](OC)[C@@H](O[C@@H]3C[C@@H](OC)[C@@H](O[C@H]4C[C@H](OC)[C@H](O)[C@H](C)O4)[C@H](C)O3)[C@@H](C)O2)C(=O)NC/C=C/C=C(\C)[C@@H](OC)[C@H](C)[C@H]2C[C@H](O)[C@H](/C=C/C=C/C=C/C(=O)O)O2)[C@H](OC(=O)Cc2ccccc2)[C@H](O)C1(C)C [LL-E19020 alpha] | O | A | A |
| C/C=C/C=C/[C@@H]1O[C@](O)([C@H](CO[C@H]2C[C@H](OC)[C@H](O[C@@H]3C[C@H](OC)[C@@H](O[C@H]4C[C@H](OC)[C@H](O)[C@H](C)O4)[C@H](C)O3)[C@H](C)O2)C(=O)NC/C=C/C=C(\C)[C@H](OC)[C@@H](C)[C@@H]2C[C@H](O)[C@@H](/C=C/C=C/C=C\C(=O)O)O2)[C@@H](O)[C@H](OC(=O)Cc2ccccc2)C1(C)C [LL-E19020 beta] | – | – | O |
